# Experimental data published in the supplement of paper PMC8728848.
# This is one part of the list.
# B1: Pwp2 (Candida glabrata) (protein)
# chain: MGSSHHHHHHSSGLVPRGSHMASKNPVELNNVCTFPNDYGRIPGFTVLVGRLGLLISASDYKELLRYPGAFLIATQDTMTTSPNFELTGFPFFTGLYGLTVFPLDLLVELRGYFVPPNSGQYTFTLSDSDDAAIIFLGNPSAFPCGDLQNWPKPSEEDITVTDHLFPSRTLYLIEGVAYPMRIAYYNGIGAGRLNAAFIDPSGTRHTNWEGYIWQYDPCSTCTYS
# What was measured:
# Experiment in all cases: glycan array binding signal (z-score within array); higher = stronger binding
# Settings in all cases: glycan notation: IUPAC condensed, linker removed
# [1] = target: Fuc(a1-2)Gal6S(b1-3)GlcNAc6S
# How it was run: (§1)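 Arrays were curated from the Consortium for Functional Glycomics database, 3228 in total, and kept only where the protein sequence was available. Binding is expressed as a within-array Z-score. This score was averaged across arrays of the same protein sequence at different concentrations or buffers and across linkers, and negative values can be read as non-binding.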
# Fuc(a1-2)Gal6S(b1-4)Glc = target: Fuc(a1-2)Gal6S(b1-4)Glc
# How it was run: as §1
# [2] = target: Fuc(a1-2)Gal6S(b1-4)Glc6S
# How it was run: as §1
# Fuc(a1-2)[Gal(a1-3)]Gal = target: Fuc(a1-2)[Gal(a1-3)]Gal
# How it was run: as §1
# [3] = target: Fuc(a1-2)[Gal(a1-3)]Gal(b1-3)GalNAc
# How it was run: as §1
# [4] = target: Fuc(a1-2)[Gal(a1-3)]Gal(b1-3)GalNAc(b1-3)Gal(a1-4)Gal(b1-4)Glc
# How it was run: as §1
# [5] = target: Fuc(a1-2)[Gal(a1-3)]Gal(b1-3)GlcNAc
# How it was run: as §1
# [6] = target: Fuc(a1-2)[Gal(a1-3)]Gal(b1-3)GlcNAc(b1-2)Man(a1-3)[Fuc(a1-2)[Gal(a1-3)]Gal(b1-3)GlcNAc(b1-2)Man(a1-6)]Man(b1-4)GlcNAc(b1-4)GlcNAc
# How it was run: as §1
# [7] = target: Fuc(a1-2)[Gal(a1-3)]Gal(b1-3)GlcNAc(b1-2)Man(a1-3)[Fuc(a1-2)[Gal(a1-3)]Gal(b1-3)GlcNAc(b1-2)Man(a1-6)]Man(b1-4)GlcNAc(b1-4)[Fuc(a1-6)]GlcNAc
# How it was run: as §1
# [8] = target: Fuc(a1-2)[Gal(a1-3)]Gal(b1-3)GlcNAc(b1-3)GalNAc
# How it was run: as §1
# [9] = target: Fuc(a1-2)[Gal(a1-3)]Gal(b1-3)GlcNAc(b1-6)GalNAc
# How it was run: as §1
# [10] = target: Fuc(a1-2)[Gal(a1-3)]Gal(b1-4)Glc
# How it was run: as §1
# [11] = target: Fuc(a1-2)[Gal(a1-3)]Gal(b1-4)GlcNAc
# How it was run: as §1
# [12] = target: Fuc(a1-2)[Gal(a1-3)]Gal(b1-4)GlcNAc(b1-2)Man
# How it was run: as §1
# [13] = target: Fuc(a1-2)[Gal(a1-3)]Gal(b1-4)GlcNAc(b1-2)Man(a1-3)[Fuc(a1-2)[Gal(a1-3)]Gal(b1-4)GlcNAc(b1-2)Man(a1-6)]Man(b1-4)GlcNAc(b1-4)GlcNAc
# How it was run: as §1
# [14] = target: Fuc(a1-2)[Gal(a1-3)]Gal(b1-4)GlcNAc(b1-2)Man(a1-3)[Fuc(a1-2)[Gal(a1-3)]Gal(b1-4)GlcNAc(b1-2)Man(a1-6)]Man(b1-4)GlcNAc(b1-4)[Fuc(a1-6)]GlcNAc
# How it was run: as §1
# [15] = target: Fuc(a1-2)[Gal(a1-3)]Gal(b1-4)GlcNAc(b1-3)GalNAc
# How it was run: as §1
# [16] = target: Fuc(a1-2)[Gal(a1-3)]Gal(b1-4)GlcNAc(b1-3)[Fuc(a1-2)[Gal(a1-3)]Gal(b1-4)GlcNAc(b1-6)]GalNAc
# How it was run: as §1
# [17] = target: Fuc(a1-2)[Gal(a1-3)]Gal(b1-4)GlcNAc(b1-6)GalNAc
# How it was run: as §1
# [18] = target: Fuc(a1-2)[Gal(a1-3)]Gal(b1-4)[Fuc(a1-3)]Glc
# How it was run: as §1
# [19] = target: Fuc(a1-2)[Gal(a1-3)]Gal(b1-4)[Fuc(a1-3)]GlcNAc
# How it was run: as §1
# [20] = target: Fuc(a1-2)[Gal(a1-3)]Gal(b1-4)[Fuc(a1-3)]GlcNAc(b1-3)GalNAc
# How it was run: as §1
binder,measurement,setting,value
B1,glycan array binding signal (z-score),[1],-0.073
same,glycan array binding signal (z-score),Fuc(a1-2)Gal6S(b1-4)Glc,-0.381
same,glycan array binding signal (z-score),[2],-1.36
same,glycan array binding signal (z-score),Fuc(a1-2)[Gal(a1-3)]Gal,1.65
same,glycan array binding signal (z-score),[3],-0.201
same,glycan array binding signal (z-score),[4],-0.25
same,glycan array binding signal (z-score),[5],0.664
same,glycan array binding signal (z-score),[6],-0.12
same,glycan array binding signal (z-score),[7],0.126
same,glycan array binding signal (z-score),[8],1.19
same,glycan array binding signal (z-score),[9],-0.62
same,glycan array binding signal (z-score),[10],-0.481
same,glycan array binding signal (z-score),[11],-0.462
same,glycan array binding signal (z-score),[12],-0.503
same,glycan array binding signal (z-score),[13],-0.438
same,glycan array binding signal (z-score),[14],0.098
same,glycan array binding signal (z-score),[15],-0.603
same,glycan array binding signal (z-score),[16],-0.24
same,glycan array binding signal (z-score),[17],3.17
same,glycan array binding signal (z-score),[18],-0.537
same,glycan array binding signal (z-score),[19],-0.529
same,glycan array binding signal (z-score),[20],-0.465
